Source: patent US20220185881A1 (JIANGSU HENGRUI MEDICINE, published 2022)

Biological target: human Claudin 18.2 (human)
Assay: cell-based or functional assay

B1: h1902-5 (antibody, human IgG1, kappa)
heavy: EVQLVQSGAEVKKPGASVKVSCKASGYTFTSYWMHWVRQAPGQRLEWMGMIHPNSGSTNYNEKFKGRVTITRDTSASTAYMELSSLRSEDTAVYYCARLKTGNSFDYWGQGTTVTVSS[human IgG1 constant region left out]
light: DIVLTQSPDSLAVSLGERATINCKSSQSLLNSGNQKNYLTWYQQKPGQPPKLLIYWASTRESGVPDRFSGSGSGTDFTLTISSLQAEDVAVYYCQNAYTYPFTFGQGTKLEIKRTVAAPSVFIFPPSDEQLKSGTASVVCLLNNFYPREAKVQWKVDNALQSGNSQESVTEQDSKDSTYSLSSTLTLSKADYEKHKVYACEVTHQGLSSPVTKSFNRGEC
  IC50 (ng/ml), ADCC effect (FcrR3A-V158-NFAT-RE-Jurkat effector cells, Bright-Glo), NUGC4 cells with high expression of Claudin 18.2: 32.2 ng/mL
  IC50 (ng/ml), ADCC effect (FcrR3A-V158-NFAT-RE-Jurkat effector cells, Bright-Glo), NUGC4 cells with low expression of Claudin 18.2: 35.5 ng/mL
  IC50 (ng/ml), ADCC effect (FcrR3A-V158-NFAT-RE-Jurkat effector cells, Bright-Glo), NUGC4 cells with medium expression of Claudin 18.2: 30 ng/mL
